# ChEMBL document CHEMBL5606460, “ASAP - DENV-2 NS2B-NS3 protease fluorescence single point” (2024)
# Among all 2,000 compounds or so, about 110 (5.5%) showed an effect of 50% or more. The list shows a part of the results.
# Biological target: Genome polyprotein (dengue virus type 2) (UniProt P29990)
# [1] = Thailand/16681/1984, Concentration 25.0 uM, Number of replicates 1.0
smiles,measurement,setting,value
NCc1cn(C2CCN(c3nc(-c4ccccc4)cs3)CC2)nn1,inhibition,"Thailand/16681/1984, Concentration 49.5 uM, Number of replicates 2.0, Standard deviation 0.032513427640456005 %",-4.62%
same,inhibition,"Thailand/16681/1984, Concentration 99.01 uM, Number of replicates 2.0, Standard deviation 1.6651164489567518 %",-3.29%
same,inhibition,"Thailand/16681/1984, Concentration 198.0 uM, Number of replicates 2.0, Standard deviation 1.091599962537426 %",0.094%
Cc1cc(CO)c2cccc(Cc3ccccc3C(=O)N3CCC(C(=O)O)CC3)c2n1,inhibition,"Thailand/16681/1984, Concentration 49.95 uM, Number of replicates 2.0, Standard deviation 0.622352552136526 %",0.457%
same,inhibition,"Thailand/16681/1984, Concentration 99.9 uM, Number of replicates 2.0, Standard deviation 0.7955477281018075 %",4.68%
O=Cc1ccc(N2CCC(C(=O)Nc3ccc(Cl)c(Cl)c3F)CC2)cc1,inhibition,[1],14.9%
Cc1ccc(C(=O)NC[C@@H](O)CN2CCCC2)cc1OCCN,inhibition,"Thailand/16681/1984, Concentration 49.5 uM, Number of replicates 2.0, Standard deviation 1.6879511900114692 %",-2.97%
same,inhibition,"Thailand/16681/1984, Concentration 99.01 uM, Number of replicates 2.0, Standard deviation 0.9187804769943255 %",-1.71%
same,inhibition,"Thailand/16681/1984, Concentration 198.0 uM, Number of replicates 2.0, Standard deviation 1.3447286505327236 %",-1.06%
O=Cc1ccc(N2CCC(C(=O)Nc3nnc(-c4ccncc4)s3)CC2)cc1,inhibition,[1],3.72%
O=C(Nc1ccc(O)cc1)c1cccc(OCc2c(Cl)cccc2Cl)c1,inhibition,"Thailand/16681/1984, Concentration 49.5 uM, Number of replicates 2.0, Standard deviation 0.38856258601515087 %",5.85%
same,inhibition,"Thailand/16681/1984, Concentration 99.01 uM, Number of replicates 2.0, Standard deviation 1.1651546847054868 %",9.28%
same,inhibition,"Thailand/16681/1984, Concentration 198.0 uM, Number of replicates 2.0, Standard deviation 0.8272279968409002 %",12.6%
Cc1[nH]nnc1CNC(=O)[C@]1(c2ccc(F)cc2)CCCNC1,inhibition,"Thailand/16681/1984, Concentration 49.5 uM, Number of replicates 2.0, Standard deviation 0.34288319939631623 %",-0.131%
same,inhibition,"Thailand/16681/1984, Concentration 99.01 uM, Number of replicates 2.0, Standard deviation 0.40057464857499825 %",-0.659%
same,inhibition,"Thailand/16681/1984, Concentration 198.0 uM, Number of replicates 2.0, Standard deviation 1.688291483666346 %",-0.62%
CC(C)(C)OC(=O)N[C@H](C(=O)Nc1cccc(C(N)=O)c1)c1ccc(OCc2ccccc2)cc1,inhibition,"Thailand/16681/1984, Concentration 49.5 uM, Number of replicates 2.0, Standard deviation 1.188000805409302 %",2.72%
same,inhibition,"Thailand/16681/1984, Concentration 99.01 uM, Number of replicates 2.0, Standard deviation 0.11203913598390365 %",5.59%
same,inhibition,"Thailand/16681/1984, Concentration 198.0 uM, Number of replicates 2.0, Standard deviation 0.9108004769909699 %",7.47%
CN(Cc1cccc2cccnc12)C(=O)C1CCN(c2ccc(C=O)cc2)CC1,inhibition,[1],14.9%
Cc1nn(C[C@@H]2CC3(CC3)S(=O)(=O)N2)cc1C1CCNCC1,inhibition,"Thailand/16681/1984, Concentration 49.5 uM, Number of replicates 2.0, Standard deviation 0.004982431843563849 %",-0.506%
same,inhibition,"Thailand/16681/1984, Concentration 99.01 uM, Number of replicates 2.0, Standard deviation 1.0725852853911906 %",-1.64%
same,inhibition,"Thailand/16681/1984, Concentration 198.0 uM, Number of replicates 2.0, Standard deviation 0.46019703454478256 %",-0.129%
O=C(Nc1ccc2c(c1)B(O)OC2)c1cccc(OCc2c(Cl)cccc2Cl)c1,inhibition,"Thailand/16681/1984, Concentration 49.5 uM, Number of replicates 2.0, Standard deviation 1.0901211560637243 %",19.7%
same,inhibition,"Thailand/16681/1984, Concentration 99.01 uM, Number of replicates 2.0, Standard deviation 0.0726220545573632 %",28.3%
same,inhibition,"Thailand/16681/1984, Concentration 198.0 uM, Number of replicates 2.0, Standard deviation 0.8886497792875844 %",48.3%
c1cncc(CN2CC[C@H](c3c[nH]c4ccccc34)C2)c1,inhibition,"Thailand/16681/1984, Concentration 49.5 uM, Number of replicates 2.0, Standard deviation 0.701809322723789 %",-0.758%
same,inhibition,"Thailand/16681/1984, Concentration 99.01 uM, Number of replicates 2.0, Standard deviation 0.005419378758788415 %",-0.106%
same,inhibition,"Thailand/16681/1984, Concentration 198.0 uM, Number of replicates 2.0, Standard deviation 0.679047938258905 %",2.74%
CCn1ccnc(N2CC[C@H](c3cccnc3)C2)c1=O,inhibition,"Thailand/16681/1984, Concentration 49.5 uM, Number of replicates 2.0, Standard deviation 1.1794090860466593 %",9.76%
same,inhibition,"Thailand/16681/1984, Concentration 99.01 uM, Number of replicates 2.0, Standard deviation 0.4566331181081256 %",17.4%
same,inhibition,"Thailand/16681/1984, Concentration 198.0 uM, Number of replicates 2.0, Standard deviation 0.521943874560607 %",30.8%
O=Cc1ccc(N2CCC(C(=O)Nc3ncccc3OCc3ccccc3)CC2)cc1,inhibition,[1],8.41%
O=Cc1ccc(N2CCC(C(=O)NCCCn3nccc3C3CC3)CC2)cc1,inhibition,[1],15.6%
O=Cc1ccc(N2CCC(C(=O)N3CCN(c4cccc([N+](=O)[O-])c4)CC3)CC2)cc1,inhibition,[1],10.2%
CCc1ccccc1S(=O)(=O)Nc1ccc(Cl)cc1C(=O)NC,inhibition,"Thailand/16681/1984, Concentration 49.5 uM, Number of replicates 2.0, Standard deviation 0.5004375178772561 %",-3.04%
same,inhibition,"Thailand/16681/1984, Concentration 99.01 uM, Number of replicates 2.0, Standard deviation 0.3390370044417576 %",-5.13%
same,inhibition,"Thailand/16681/1984, Concentration 198.0 uM, Number of replicates 2.0, Standard deviation 0.452208710538846 %",-8.94%
C=CCN(C(=O)C1CCN(c2ccc(C=O)cc2)CC1)[C@H]1CCS(=O)(=O)C1,inhibition,[1],14.8%
Cc1nc([C@H]2CCCNC2)[nH]c1C(=O)N1CC[C@H](Oc2ccc(C(N)=O)cc2)C1,inhibition,"Thailand/16681/1984, Concentration 49.5 uM, Number of replicates 2.0, Standard deviation 2.3952209741346326 %",-1.21%
same,inhibition,"Thailand/16681/1984, Concentration 99.01 uM, Number of replicates 2.0, Standard deviation 1.3723206907713277 %",-0.315%
same,inhibition,"Thailand/16681/1984, Concentration 198.0 uM, Number of replicates 2.0, Standard deviation 1.2934192615480233 %",0.162%
O=Cc1ccc(N2CCC(C(=O)NCC(=O)c3ccc(O)cc3)CC2)cc1,inhibition,[1],24.6%
CN(Cc1ccc(Cl)cc1)C(=O)C1CCN(c2ccc(C=O)cc2)CC1,inhibition,[1],14%
